In the supplement of paper PMC7826260:
The other results are listed elsewhere or left out. Cleavage of a single-stranded DNA pool by Rep nickase domains was read by sequencing for 1 h at 37 °C with 3 µM enzyme; only the middle of the 90-letter strands is printed. Values are log2 of uncut reads against the no-enzyme pool; the lower, the more was cut; hits are not called. Because reads are shares of a total, they shift together, so uncut sequences can rise above 0 when many others are cut.

How the values were obtained:
Experiment in all cases: uncleaved DNA left, log2 of reads against the no-enzyme library (log2 ratio); higher = less cleavage (more negative = more Rep cleavage of the k-mer); sequences stand for … in CTCGTCCG…ACCGGAGA
[1] = test system: T1, Rep nickase domain of Muscovy duck circovirus
T1 sequence (protein, residues 1-111, tag omitted): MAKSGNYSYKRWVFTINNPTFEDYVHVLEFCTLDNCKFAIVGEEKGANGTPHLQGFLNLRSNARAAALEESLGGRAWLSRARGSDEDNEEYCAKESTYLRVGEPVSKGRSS
Protocol: (§1)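 A pool of 90-nt single-stranded DNAs with seven random bases just before the constant AC of the nick site (name = the seven bases) was cut by 3 µM recombinant His6-SUMO-tagged Rep nickase domain (300 nM DNA, 50 mM HEPES pH 8.0, 50 mM NaCl, 1 mM MnCl2, 1 h, 37 °C, three replicates). Uncut DNA was amplified and sequenced.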

[2] = test system: T2, Rep nickase domain of banana bunchy top virus
T2 sequence (protein, residues 1-94, tag omitted): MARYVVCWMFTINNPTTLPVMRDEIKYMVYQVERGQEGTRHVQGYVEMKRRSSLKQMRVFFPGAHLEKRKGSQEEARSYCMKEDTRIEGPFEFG
Protocol: as §1

[3] = test system: T3, Rep nickase domain of cabbage leaf curl virus
T3 sequence (protein, residues 1-116, tag omitted): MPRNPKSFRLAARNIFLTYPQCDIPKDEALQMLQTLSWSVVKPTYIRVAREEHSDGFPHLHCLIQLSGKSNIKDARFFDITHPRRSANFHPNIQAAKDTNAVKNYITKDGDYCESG
Protocol: as §1

[4] = test system: T4, Rep nickase domain of chickpea chlorotic dwarf virus
T4 sequence (protein, residues 1-124, tag omitted): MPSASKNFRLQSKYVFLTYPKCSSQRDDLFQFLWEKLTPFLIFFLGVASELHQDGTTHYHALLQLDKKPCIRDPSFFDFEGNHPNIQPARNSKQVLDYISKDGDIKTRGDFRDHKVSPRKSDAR
Protocol: as §1

[5] = test system: T5, Rep nickase domain of faba bean necrotic yellows virus
T5 sequence (protein, residues 1-98, tag omitted): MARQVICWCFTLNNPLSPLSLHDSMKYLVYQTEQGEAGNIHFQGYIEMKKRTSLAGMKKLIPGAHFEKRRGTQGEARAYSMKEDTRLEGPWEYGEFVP
Protocol: as §1

[6] = test system: T6, Rep nickase domain of maize striate mosaic virus
T6 sequence (protein, residues 1-117, tag omitted): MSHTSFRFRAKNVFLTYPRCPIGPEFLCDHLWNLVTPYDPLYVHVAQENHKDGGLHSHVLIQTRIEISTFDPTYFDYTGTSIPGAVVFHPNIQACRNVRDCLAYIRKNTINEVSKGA
Protocol: as §1

[7] = test system: T7, Rep nickase domain of porcine circovirus 2
T7 sequence (protein, residues 2-116, tag omitted): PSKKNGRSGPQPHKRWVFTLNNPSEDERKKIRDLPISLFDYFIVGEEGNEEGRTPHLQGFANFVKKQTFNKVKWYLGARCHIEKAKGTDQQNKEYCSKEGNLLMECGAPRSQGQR
Protocol: as §1

[8] = test system: T8, Rep nickase domain of tomato golden mosaic virus
T8 sequence (protein, residues 1-124, tag omitted): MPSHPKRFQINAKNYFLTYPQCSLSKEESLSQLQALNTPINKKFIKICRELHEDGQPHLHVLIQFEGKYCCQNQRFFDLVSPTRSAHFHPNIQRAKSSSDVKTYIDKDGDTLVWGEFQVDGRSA
Protocol: as §1

[9] = test system: T9, Rep nickase domain of tomato yellow leaf curl virus
T9 sequence (protein, residues 1-136, tag omitted): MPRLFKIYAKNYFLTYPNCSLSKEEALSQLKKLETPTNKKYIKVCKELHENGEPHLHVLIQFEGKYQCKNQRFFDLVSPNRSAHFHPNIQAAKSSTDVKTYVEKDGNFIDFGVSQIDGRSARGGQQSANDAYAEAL
Protocol: as §1

[10] = test system: T10, Rep nickase domain of wheat dwarf virus
T10 sequence (protein, residues 1-137, tag omitted): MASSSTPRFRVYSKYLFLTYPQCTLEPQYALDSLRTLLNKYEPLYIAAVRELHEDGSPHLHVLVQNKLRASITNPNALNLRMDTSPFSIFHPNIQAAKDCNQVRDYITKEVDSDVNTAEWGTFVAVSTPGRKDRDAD
Protocol: as §1

Row | Sequence | uncleaved DNA left (log2) [1] | uncleaved DNA left (log2) [2] | uncleaved DNA left (log2) [3] | uncleaved DNA left (log2) [4] | uncleaved DNA left (log2) [5] | uncleaved DNA left (log2) [6] | uncleaved DNA left (log2) [7] | uncleaved DNA left (log2) [8] | uncleaved DNA left (log2) [9] | uncleaved DNA left (log2) [10]
1 | GGGATTC | -0.0637 | 0.0215 | 0.721 | 1.9 | -0.141 | 2.17 | 0.136 | -0.129 | 0.0381 | 0.0801
2 | TGCAGTA | 0.0163 | -0.0333 | -0.144 | -0.691 | 0.05 | -0.775 | -0.207 | -0.071 | 0.0432 | 0.0638
3 | ATTGAGT | 0.0267 | -0.033 | -0.63 | -0.686 | 0.124 | -1.04 | -0.0678 | 0.148 | 0.045 | -0.157
4 | TCGTGTC | 0.142 | 0.0301 | 0.143 | -0.119 | 0.0548 | -0.635 | -0.0328 | -0.0283 | 0.118 | -0.0205
5 | CTTTCCG | -0.0244 | 0.0616 | -0.857 | 0.0468 | 0.0725 | -0.907 | 0.233 | -0.0239 | 0.12 | 0.0271
6 | TGTCTCC | 0.0512 | -0.0346 | 0.149 | 0.344 | -0.0928 | 1.47 | 0.0728 | -0.0449 | -0.0815 | -0.0136
7 | AGAAGGC | 0.0132 | 0.0772 | -0.0108 | 0.13 | 0.0865 | -0.717 | 0.075 | 0.0279 | 0.0313 | -0.0113
8 | CAGAACC | -0.0623 | -0.0633 | 0.043 | -0.351 | 0.0273 | 0.0649 | -0.322 | 0.0519 | -0.124 | 0.0153
9 | TTGTATT | -3.37 | -3.53 | -0.647 | -2.91 | -2.97 | -0.443 | -3.72 | -0.449 | 0.0135 | -0.85
10 | AAAGACG | 0.0364 | 0.19 | -0.324 | -0.393 | 0.0546 | -1.1 | 0.207 | 0.0118 | 0.121 | 0.113
11 | CCCGGGC | 0.0649 | 0.0916 | 0.323 | 0.86 | -0.00482 | 1.01 | 0.118 | 0.0642 | -0.0205 | 0.0431
12 | CGATCAG | -0.0274 | 0.0217 | -0.33 | 0.0243 | -0.154 | -0.477 | 0.0573 | -0.0268 | -0.0584 | 0.0109
13 | TGACCCG | 0.124 | 0.108 | -0.149 | 0.199 | 0.143 | -0.543 | 0.011 | 0.0334 | 0.0661 | 0.0756
14 | TATCCCA | -0.0487 | -0.0363 | 0.0606 | -2.31 | -0.0654 | -0.236 | -0.988 | -0.122 | -0.0661 | -0.0124
15 | GGACCAC | -0.0154 | 0.0762 | 0.764 | 1.51 | 0.0414 | 2.07 | 0.0412 | -0.0372 | 0.064 | 0.248
16 | ATCCCTG | -0.15 | -0.159 | -0.177 | 0.214 | -0.0169 | 0.2 | -0.0586 | -0.0913 | -0.198 | -0.134
17 | CCCGTGA | 0.0521 | 0.107 | 0.37 | 0.144 | 0.157 | -0.584 | 0.18 | 0.0328 | 0.117 | 0.173
18 | TTGCGTG | 0.0487 | -0.0114 | -0.633 | -0.618 | 0.0371 | -1.1 | 0.164 | 0.0149 | 0.0496 | 0.0727
19 | AGCTTTC | -0.145 | -0.169 | -0.0471 | 0.0985 | -0.158 | -0.428 | -0.245 | -0.188 | -0.113 | -0.113
20 | CTAAATA | 0.107 | 0.0747 | -0.0786 | -1.54 | 0.117 | -0.59 | -0.0227 | 0.113 | 0.0371 | 0.171
21 | ACTAATA | -0.171 | -0.056 | -0.321 | -1.58 | -0.0135 | -0.753 | -0.174 | -0.0573 | -0.079 | -0.0756
22 | TGCTAGC | 0.114 | 0.0512 | 0.253 | 0.528 | 0.0178 | 0.441 | 0.139 | 0.143 | 0.131 | -0.088
23 | AGGTGAT | 0.0331 | 0.084 | 0.328 | 1.67 | 0.0613 | 1.97 | -0.0218 | 0.266 | -0.0661 | 0.157
24 | TCCTGCT | -0.769 | -0.122 | -0.542 | -1.72 | 0.0528 | -1.15 | -2.98 | 0.0805 | -0.0318 | -0.185
25 | TGAAAGG | 0.102 | 0.15 | 0.485 | 1.25 | 0.171 | 1.26 | 0.271 | 0.132 | 0.073 | 0.176
26 | CAGCAGA | 0.0645 | -0.0346 | -0.294 | -0.517 | 0.0629 | -1.06 | -0.0751 | -0.00491 | -0.00916 | -0.0515
27 | ACGATTT | -0.0883 | -0.159 | -0.216 | -2.43 | -0.0896 | -0.445 | -0.355 | -0.0459 | -0.106 | -0.0237
28 | GGTGACT | -0.00107 | 0.0646 | 0.776 | 1.92 | -0.0448 | 2.29 | 0.24 | -0.00741 | 0.0203 | 0.0528
29 | AACAGAT | 0.0203 | -0.0432 | 0.234 | 1.07 | -0.0522 | 1.23 | -0.0763 | 0.0393 | -0.129 | -0.00152
30 | TAATGCA | -1.09 | 0.0579 | -2.86 | -2.54 | 0.0673 | -1.99 | -1.66 | -0.982 | 0.0546 | -1.51
